According to publication PMC12136788:
The other results are listed elsewhere or left out.

B1: 38044239_38044359_1115_3pUTR_ENSMUSG00000058407_ENSMUST00000162031|mouse|control|control (ssRNA)
RNA: GGGAGUUCUACAGUCCGACGAUCGUUUGAAGAUAGAAGAAUCACGUUAUGAUAAAAUCAAUCACAAAAAUAGAGAAUUCAGACCCUCCCAGGUAAUUUAAAGUAUGUUUCUCUCAAGUUAUACACAAUGACUGCAGACAAAAUCAACAGAGGAUUGAGCAUCA
B2: 34975929_34976049_1091_3pUTR_ENSMUSG00000021413_ENSMUST00000077853|mouse|control|control (ssRNA)
RNA: GGGAGUUCUACAGUCCGACGAUCUUGAAGGUGAUUUAAUUGGCUUCUUUUCUUUGUCAAUUUCAGAUCGUUUUGACUUCCGCUCUUUGGACCUUGACCUUCUGUCUUUGGAUUUAUCUCUUAAGUCAACUGGGGACUUGGAUUCAACAGAGGAUUGAGCAUCA
B3: chr22:19452774:19452775:-_ENSG00000070010_ENST00000399523|hu_hu|hu_hu_hu_mus_False|38_38 (ssRNA)
RNA: GGGAGUUCUACAGUCCGACGAUCCUUCUCAUUGUAGUUGAUAGCAAUCACAUCUCCAGUCGUCAGACAGGCGAAGUUUCUCAAUGCAUUUUCUAAUACGGCUUUGGGGUUGGUAAUAUCCAGGAAGUCUGGGCUCUGAGGCUGCAACAGAGGAUUGAGCAUCA
B4: chr7:141441981:141441982:+_ENSG00000106028_ENST00000265304|hu_mus|hu_hu_hu_mus_False|58_78 (ssRNA)
RNA: GGGAGUUCUACAGUCCGACGAUCCUCAUGUCUUACAAACUGACGAAAUACCUGUAAUACAGGUCUUCGAAACAUGGCUUCUAUUUUUCUUACAACCUAAUCUUUAGGCUUUUCCUAAAGGAAAGAAAGAAAAGAGAAAAAUGACAACAGAGGAUUGAGCAUCA
B5: chr9:66245071:66245072:+_ENSMUSG00000038664_ENSMUST00000042824|mus_mus|FALSE|FALSE (ssRNA)
RNA: GGGAGUUCUACAGUCCGACGAUCUCCCGCCAGGGCCAGAGCAAGGUGAUUUGAAAGCAACUUCAGGCACAGCUUAAGAAAAUUAUGGUGUUCCCUUGAUGAAGGGAAAGGCAGUGGGGGAAUCUCACUGUUUAUUUUAUCACACAACAGAGGAUUGAGCAUCA
B6: 52357847_52357967_588_CDS_ENSMUSG00000003420_ENSMUST00000003512|mouse|control|control (ssRNA)
RNA: GGGAGUUCUACAGUCCGACGAUCUGUGGUCUCCUUCUCCCAAUACCAAGACACCUGAUUUUCCCACAUCCAGGCCCCACAGGGGUCAGCUUCCUGCCGCAGGCUGUUGUAGGUCAGAUACUGCUGAGGACCCAACCAGCCUGUCAACAGAGGAUUGAGCAUCA
B7: chrX:71549400:71549401:+_ENSMUSG00000019087_ENSMUST00000019231|mus_hu|mus_mus_mus_hu_False|38_88 (ssRNA)
RNA: GGGAGUUCUACAGUCCGACGAUCGCAGUAGGAAGAGGGAAGCUCUUCAUCCACUGUCGCUGCAGGGUGGGAAAGCAACAACACGGACACCGUCCCACCUCAAUUCCCCCCACUGGCACAGGGUCACACAAUCUGGGUCAAAGACAACAGAGGAUUGAGCAUCA
B8: chr7:157177620:157177621:+_ENSG00000105993_ENST00000429029|hu_mus|FALSE|FALSE (ssRNA)
RNA: GGGAGUUCUACAGUCCGACGAUCGCCCAUUCCACUGCCGCCAAAUGACGUUGAAGAAAAUGAAGUGAGACCCCCAUGACCUAGUGACCCAAAUGGAGUGAAGCCUGUAUCAAAAGCAGGAAAUCCACUUCCAAAAGAAGGAAACAACAGAGGAUUGAGCAUCA
B9: chr2:187541933:187541934:+_ENSG00000138448_ENST00000261023|hu_hu|FALSE|FALSE (ssRNA)
RNA: GGGAGUUCUACAGUCCGACGAUCAAAAAAGCCCAUCCUGUACAUUACAAAUACCAAAACAGCCAGUAGCAACAAUCCUGCUAGAACUGCUAAAAUGAUCACCCACACAGGCACAGGCAUGGGCGCUGGCUGAAUGCCCCAGGUCAACAGAGGAUUGAGCAUCA
B10: 132971832_132980583_1062_CDS_ENSG00000132294_ENST00000254624|human|control|control (ssRNA)
RNA: GGGAGUUCUACAGUCCGACGAUCGUGUCCUAGAAUCUCCUGGAUCACAUGGUGAGAAUACUGAGCCUGAAUGGAAUACAUUAUAAUUUUAAAGCAGUGAACUGCAAAUUCAUUGGGAUCCCACAGUUUGUGAUGAUCUAAAUGCAACAGAGGAUUGAGCAUCA
B11: chr4:95690885:95690886:+_ENSMUSG00000028572_ENSMUST00000156910|mus_mus|mus_mus_mus_hu_False|18_18 (ssRNA)
RNA: GGGAGUUCUACAGUCCGACGAUCUUUAGAAAAUGUUAAAUACCAUGCUAAAAUAUUUUCAAAGGCUUAUUUUAUUUUACCAGAAGUCACAGGCAAGCAGACACUACAAGAAUAUAUAAAUACAAACCUCAACAAUAUAACUGUCAACAGAGGAUUGAGCAUCA
B12: chr3:148802587:148802588:-_ENSG00000071794_ENST00000310053|hu_mus|hu_hu_hu_mus_False|1_8 (ssRNA)
RNA: GGGAGUUCUACAGUCCGACGAUCUCCAACAACUUGUCCUCUCAUAGUUCCAAAUAAAACCAAAUCUUGCUCUUCAUCACUCGUUAGGAAGUCAUCUGGAGGAAUAAUGUCUUGGAAUUCAAAAUGUGGAAAGAAAGUUGGAUACAACAGAGGAUUGAGCAUCA
B13: chr17:40359653:40359654:-_ENSG00000173757_ENST00000293328|hu_mus|FALSE|FALSE (ssRNA)
RNA: GGGAGUUCUACAGUCCGACGAUCCGGUGUGUAGUACUUAGAAUAUACUUCAUCCUUUGGCCGAUCAGGAAACACAUAUAUGAGGUAAUUCAGGUCCCCCAGGCGGUCAGCGAGGGACCGGAUAGAGAAGUCUCUAGUGGUAAACAACAGAGGAUUGAGCAUCA
B14: chr10:33214929:33214930:-_ENSG00000150093_ENST00000302278|hu_hu|motif|central (ssRNA)
RNA: GGGAGUUCUACAGUCCGACGAUCAACAAGUUCAUUAAAUACUUCUCCUUUAUUAGUAAGACUGAGCACAUUUUUGUAGCGGAAUGGGCUGGUGCAGUUCUGUUCACUUGUGCAAGGGUUCCUGAGCUUAGCUGGUGUUGUGCUCAACAGAGGAUUGAGCAUCA
B15: chr16:94690093:94690094:+_ENSMUSG00000040785_ENSMUST00000117648|mus_hu|motif|central (ssRNA)
RNA: GGGAGUUCUACAGUCCGACGAUCGGGCUGGGAUGACGGACACACAGCCUCGAUUCCAGGGGGAAAAAGUCUUAGUCGAUACGGAUUAAAAAGUGUUAAUGAUUUUUGAAAAUCAGAUUACAUCUAUAAAAGAUGAAAAGCAAACAACAGAGGAUUGAGCAUCA
B16: 106161250_106161370_348_3pUTR_ENSMUSG00000046079_ENSMUST00000060531|mouse|control|control (ssRNA)
RNA: GGGAGUUCUACAGUCCGACGAUCCCCUCAGGGCGCUCUCGAGGACUCGGCUGCGGGCAGGCUCCGGGGGCUGGAACCGCUGCGACGCGAGACUUCACUCCUCCAUCCUGGGAGCCGGCAGCACGUUGCAGUCAGCAGUGCACUCAACAGAGGAUUGAGCAUCA
B17: chr5:61681977:61681978:+_ENSG00000068796_ENST00000381103|hu_hu|FALSE|FALSE (ssRNA)
RNA: GGGAGUUCUACAGUCCGACGAUCCCACUGUCACAGACUUUAGUUCCGUUCAAUGAUAUGGCACAUCCUGCAAAAUUAACUAGUCACACACAAAAAAUGUCUCAAAUACAGUAAAAAUGUACACACAAAGGUAAUUUACAAUGACAACAGAGGAUUGAGCAUCA
B18: chr7:74379609:74379610:-_ENSMUSG00000030557_ENSMUST00000156690|mus_mus|FALSE|FALSE (ssRNA)
RNA: GGGAGUUCUACAGUCCGACGAUCGUAAGUGCCUGAUUUUGUGUAUGCAACACACACCCACACAUACACACACACUCACACCAACAUACAUAUAUAUAUGUAAAGGGAUAUAUAUGUAUGCAUGUACAUAUAAAUAUAUUGAACCAACAGAGGAUUGAGCAUCA
B19: 31192494_31192614_209_3pUTR_ENSMUSG00000029165_ENSMUST00000031057|mouse|control|control (ssRNA)
RNA: GGGAGUUCUACAGUCCGACGAUCCCACCUUUUCCACAUGGGCUAGGUUCCCUGAAUCAAAGCGAGAACUGAACAGCAAUCCCCCACAGCGCAGCUCCAUGGUGGGGCUGGGAAAGCAUCCUCUUGCCCCACACAGGCCCUGAGCAACAGAGGAUUGAGCAUCA
B20: chr14:89307221:89307222:+_ENSG00000165533_ENST00000346301|hu_mus|hu_hu_hu_mus_False|88_88 (ssRNA)
RNA: GGGAGUUCUACAGUCCGACGAUCUCCUGUUUGGUUAGUGCCAGGGAGUUUCAAAGAUGUGCCAGGGCGUGGGACCUGAGCAAUAGCAUUUUCAUCCAGGAUCAUUUCAGCAAUUCCUUCCUGGUCCACAUCAAUUUCAUCUAUCAACAGAGGAUUGAGCAUCA
B21: chr19:8913615:8913616:-_ENSMUSG00000071658_ENSMUST00000096259|mus_hu|mus_mus_mus_hu_False|38_78 (ssRNA)
RNA: GGGAGUUCUACAGUCCGACGAUCAGGGUACCAAAACCUUCUGCCUGAAAUGGGUGCCCCACCCUGCAGGGAGUUGCAGCUGAAAGUAUCUGAUGCACUGACAGUUACUAUACGAAAGGAGGCCCCUGGGGAGGGCCAGGCCAGCAACAGAGGAUUGAGCAUCA
B22: chr3:41266964:41266965:+_ENSG00000168036_ENST00000349496|hu_mus|FALSE|FALSE (ssRNA)
RNA: GGGAGUUCUACAGUCCGACGAUCGAUGGCCAGCAAGCCCUCGCGGUGGUGAGAAAGGUUGUGCAGAGUCCCAGCAGUACAACGAGCUGUCUCUACAUCAUUUGUAUUCUGCAUGGUGCGUACAAUGGCAGACACCAUCUGAGGCAACAGAGGAUUGAGCAUCA

Biological target: T1, UNK ZnF1-3 (human, UniProt Q9C0B0 31-174)
T1 sequence: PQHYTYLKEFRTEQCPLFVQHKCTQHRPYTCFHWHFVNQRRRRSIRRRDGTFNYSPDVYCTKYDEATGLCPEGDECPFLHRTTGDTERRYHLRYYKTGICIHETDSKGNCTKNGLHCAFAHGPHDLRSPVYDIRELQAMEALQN
Test: nsRBNS (natural sequence RNA bind-n-seq); RBNS binding buffer (assumed for nsRBNS): 25 mM Tris pH 7.5, 150 mM KCl, 3 mM MgCl2, 0.01% Triton X-100, 500 ug/ml BSA, 20 U/ml SUPERase-In, 4 C; UNK is unkempt and MSI1 is Musashi-1; names of the RNAs are library labels; protein concentration not given here; high values mean tight binding

Binder | binding signal
B1 | 1.15 enrichment R
B2 | 0.294 enrichment R
B3 | 0.912 enrichment R
B4 | 0.579 enrichment R
B5 | 1.21 enrichment R
B6 | 0.939 enrichment R
B7 | 0.955 enrichment R
B8 | 1.53 enrichment R
B9 | 0.775 enrichment R
B10 | 1.82 enrichment R
B11 | 1.49 enrichment R
B12 | 1.19 enrichment R
B13 | 1.33 enrichment R
B14 | 0.968 enrichment R
B15 | 0.901 enrichment R
B16 | 0.988 enrichment R
B17 | 1.26 enrichment R
B18 | 0.833 enrichment R
B19 | 1.48 enrichment R
B20 | 0.905 enrichment R
B21 | 2.15 enrichment R
B22 | 0.786 enrichment R
